# Data taken from the supplement of paper PMC4166925.
# ± gives the standard deviation of the averaged measurements. The full ranking holds about 33,000 sequences; the median of “E-score (dimensionless, -0.5 to 0.5)” is about -0.046, and the highest 2% start at about 0.36. The list shows a part of the results.
# Test system: T1, SpTbr T-box DNA-binding domain (GST fusion)
# T1 sequence: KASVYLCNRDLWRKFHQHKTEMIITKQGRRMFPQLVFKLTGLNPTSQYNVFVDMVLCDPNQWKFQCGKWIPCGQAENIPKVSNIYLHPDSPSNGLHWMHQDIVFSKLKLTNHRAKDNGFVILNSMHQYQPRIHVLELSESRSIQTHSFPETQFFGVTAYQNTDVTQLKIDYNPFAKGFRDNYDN
# Assay: PBM E-score of 8-mer (E-score (dimensionless, -0.5 to 0.5)); Tbr is Tbrain of the sea star Patiria miniata (Pm) or the sea urchin Strongylocentrotus purpuratus (Sp); higher = stronger binding preference; most listed sequences are background and not binding sites
# Conditions: the construct has about 5 more residues each side
# Procedure: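 Universal protein-binding microarray (Agilent AMADID 016060, 60-bp probes with a 35-bp variable region) incubated with 200 nM GST-fused Strongylocentrotus purpuratus Tbr T-box DNA-binding domain (residues 362-554) in PBS pH 7.5. Scored for every ungapped 8-mer (given with its reverse complement) as E-score (range -0.5 to 0.5; >0.45 counts as bound) and Z-score of median probe intensity. Two replicate arrays (datasets 1 and 2).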
# 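Further: protein at 200 nM in PBS on universal double-stranded arrays.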
row,Sequence,PBM E-score of 8-mer
1,CCATCAGC,-0.115 ± 0.027
2,CCCAATCC,0.0195 ± 0.072
3,GGAGACAA,-0.00259 ± 0.0093
4,CTTTCCTC,-0.0992 ± 0.05
5,GCGACCCA,-0.0308 ± 0.06
6,CGGTGGGA,0.00775 ± 0.037
7,CCCACAAC,0.254 ± 0.0055
8,ATAGGCCA,-0.327 ± 0.07
9,AAAACTCT,-0.0653 ± 0.048
10,CACTCGCA,0.351 ± 0.0057
11,ATTCACTG,0.0169 ± 0.045
12,AGCGTGCA,-0.0595 ± 0.016
13,CTAATGGC,0.113 ± 0.049
14,CACCGGGG,-0.211 ± 0.025
15,GATACTGC,-0.0565 ± 0.046
16,AGACGTCC,-0.16 ± 0.0048
17,ATCTGAAA,-0.116 ± 0.084
18,CCCTGTAG,-0.36 ± 0.056
19,CGCTCGAA,0.0265 ± 0.066
20,GACAAGTA,0.181 ± 0.05
21,ACAAACCG,0.0539 ± 0.054
22,AAACCACA,0.0879 ± 0.052
23,AGAGCTTC,-0.253 ± 0.028
24,AGGTCCTG,-0.109 ± 0.031
25,ACGAAACG,0.15 ± 0.041

row,Sequence,PBM E-score of 8-mer
1,CACTCAAC,0.1361 ± 0.00042
2,GGTGGATA,-0.0132 ± 0.019
3,TAGATAAA,-0.308 ± 0.026
4,GACTAACC,0.0204 ± 0.03
5,GCTGCTTA,-0.0784 ± 0.055
6,ACATAGTG,0.206 ± 0.0082
7,CCGTTTTA,-0.0769 ± 0.0085
8,CCAATTGG,-0.141 ± 0.074
9,CGGCCCGA,-0.146 ± 0.018
10,CAACCCCC,-0.118 ± 0.0024
11,CGAATAAG,-0.0861 ± 0.031
12,CAACACGA,0.185 ± 0.0087
13,CAAGTCCA,-0.11 ± 0.0099
14,AACGCAAG,-0.0223 ± 0.0086
15,GTATCGTA,0.0225 ± 0.15
16,ACCACGCC,0.163 ± 0.037
17,GCCTACGA,-0.0302 ± 0.07
18,TCGACCGA,-0.169 ± 0.0017
19,AAGCAAGA,-0.0292 ± 0.048
20,ACCATTGA,0.0727 ± 0.061
21,CTTATAGA,-0.095 ± 0.0066
22,TAAGTCAA,-0.0474 ± 0.027
23,GACAATCC,0.0693 ± 0.021
24,CAATTGGA,-0.182 ± 0.04
25,ATGGTTTC,-0.0274 ± 0.0044

row,Sequence,PBM E-score of 8-mer
1,ACCGGGCG,0.115 ± 0.046
2,ATGCTAGC,-0.00369 ± 0.046
3,AGTACTGA,-0.0534 ± 0.012
4,AATCAGTC,-0.0936 ± 0.015
5,CAGACCGC,-0.198 ± 0.051
6,ACTATCAG,0.0352 ± 0.0071
7,CACATTCA,0.21 ± 0.041
8,AGATCTCG,0.0398 ± 0.011
9,CCAAAAAC,-0.0838 ± 0.018
10,ACGGCTGC,0.0325 ± 0.034
11,CTCAGGAG,-0.129 ± 0.05
12,CAGACTAG,-0.246 ± 0.087
13,CCATCGAA,-0.263 ± 0.029
14,CACCAGTG,0.102 ± 0.04
15,CGCTGGAC,0.0117 ± 0.034
16,AGTTTCAC,0.287 ± 0.019
17,ATAATCGA,-0.102 ± 0.086
18,CAGTTGGG,-0.0462 ± 0.058
19,AGAGTGGG,-0.128 ± 0.066
20,ACTTCCGC,0.0332 ± 0.13
21,CAGTTCCC,0.0834 ± 0.012
22,ACGCATAC,-0.0105 ± 0.01
23,ACCGTCGC,0.166 ± 0.037
24,ACATGACT,-0.0828 ± 0.028
25,CGCAGTCA,-0.0245 ± 0.0092

row,Sequence,PBM E-score of 8-mer
1,ACCTGTGG,0.239 ± 0.013
2,CTATTGCA,-0.128 ± 0.029
3,GTACAAGA,-0.30546 ± 0.00023
4,AGCTGTTA,0.267 ± 0.017
5,AGAACCCT,-0.224 ± 0.064
6,CAAATAGA,-0.161 ± 0.02
7,CTCCTAGA,-0.253 ± 0.008
8,AAGCTGTA,-0.0678 ± 0.059
9,ATTGAGCA,-0.268 ± 0.018
10,AAAATGAC,0.0806 ± 0.054
11,ACCCTCGA,0.1 ± 0.027
12,ACATTAAT,-0.219 ± 0.038
13,CTTCAATC,0.037 ± 0.033
14,CGGAGGGC,-0.0279 ± 0.049
15,AACCTAGC,-0.0309 ± 0.0034
16,CCGTTGGA,-0.109 ± 0.035
17,AGAGAGAG,0.0384 ± 0.024
18,ATAACCCA,-0.0973 ± 0.043
19,GATTGTCA,0.248 ± 0.0068
20,TCCGACGA,0.119 ± 0.02
21,CAATTCCC,-0.166 ± 0.032
22,CATTGCAC,0.11 ± 0.024
23,TGCGTCAA,0.145 ± 0.012
24,AGCTTTCC,0.0219 ± 0.081
25,AGAGCCGA,-0.0992 ± 0.045

row,Sequence,PBM E-score of 8-mer
1,ATCCGAAC,-0.233 ± 0.033
2,AGGTGAGA,0.4826 ± 0.0046
3,CTAGTACA,0.171 ± 0.0048
4,GGCTATTA,-0.117 ± 0.12
5,CGTACCAA,-0.0588 ± 0.05
6,CTCTGTGA,0.094 ± 0.062
7,ACCACGAA,-0.0504 ± 0.045
8,ACGTGATG,0.0808 ± 0.05
9,AAACAGCG,0.0862 ± 0.049
10,GTGGACGA,-0.0409 ± 0.08
11,ATGGCAGC,0.0838 ± 0.045
12,AGGAAAAC,-0.188 ± 0.049
13,CTCACTGC,0.0922 ± 0.076
14,GACTATTA,-0.223 ± 0.022
15,TTTAAAAA,-0.275 ± 0.034
16,CATGTAGG,0.0316 ± 0.017
17,ATGGATAA,-0.264 ± 0.017
18,AGGGAATC,-0.228 ± 0.039
19,ATAACGAT,0.0577 ± 0.043
20,AGGGAAGA,-0.221 ± 0.0054
21,AGCCGTCG,0.0127 ± 0.019
22,AAATACTG,-0.296 ± 0.014
23,ACTGCGCG,-0.0444 ± 0.0048
24,CACGGAGG,0.0809 ± 0.048
25,CATACGGG,-0.188 ± 0.04

row,Sequence,PBM E-score of 8-mer
1,CAAGTATA,-0.0826 ± 0.084
2,AGTAATGC,-0.147 ± 0.065
3,AACCGAGA,0.113 ± 0.045
4,CACGCGGG,0.245 ± 0.0052
5,CGAGGCTC,-0.174 ± 0.0092
6,CTAGCGGA,-0.0583 ± 0.019
7,GTAAACCA,0.112 ± 0.029
8,ATTCGTAG,-0.0997 ± 0.051
9,CTCCCCAC,0.097 ± 0.09
10,ATTTTCAG,-0.243 ± 0.02
11,TCGACAAA,0.159 ± 0.054
12,GCTAGCCC,-0.0334 ± 0.073
13,ATCCTCTA,-0.247 ± 0.081
14,GGTAAGAA,-0.02 ± 0.051
15,AACGTCGG,-0.15 ± 0.052
16,ATAGCTTA,-0.133 ± 0.021
17,CATGATGC,-0.146 ± 0.043
18,ATGGCTAG,-0.134 ± 0.017
19,AGGAGACC,-0.232 ± 0.028
20,CGTGTGCC,0.0456 ± 0.035
21,GCAGCCCC,-0.15 ± 0.027
22,ATGGCGCG,0.184 ± 0.074
23,CCGTGCGC,-0.0316 ± 0.046
24,ACCTTACG,0.154 ± 0.035
25,GGATATTA,-0.28 ± 0.018

row,Sequence,PBM E-score of 8-mer
1,AGATGCAT,-0.0592 ± 0.02
2,CAACTCAG,0.0384 ± 0.031
3,CACCCAAA,-0.00315 ± 0.023
4,ACCAATAA,-0.11 ± 0.041
5,CTGCGTAA,-0.152 ± 0.034
6,CTTTTGCA,0.0339 ± 0.067
7,CCATAGGA,-0.1 ± 0.037
8,TCCAGGAA,-0.177 ± 0.0033
9,AAATTCAG,-0.0152 ± 0.023
10,ATCCAGAG,-0.25 ± 0.021
11,GTGCAAAA,0.237 ± 0.068
12,AGTCAGCG,-0.14 ± 0.041
13,GAACCACC,-0.0115 ± 0.036
14,TCCCCTAA,-0.144 ± 0.02
15,TCGCAAGA,0.167 ± 0.016
16,CTTGACGC,0.324 ± 0.011
17,GTCGGAGA,-0.119 ± 0.034
18,ACTGCTGC,-0.0667 ± 0.011
19,ACTTGCGG,0.0502 ± 0.018
20,ACCAGCTG,0.0355 ± 0.059
21,TACGTACA,-0.0846 ± 0.028
22,AAGTCAGG,-0.243 ± 0.14
